Test system: patients with moderate to severe L-DOPA-induced dyskinesia (LID) in Parkinson's disease
Test: Adverse events, Phase 2a study of NLX-112 versus placebo

Cc1ccc(CNCC2(F)CCN(C(=O)c3ccc(F)c(Cl)c3)CC2)nc1 [NLX-112]
14 (78) n (%): Any AE, subjects n (%) (up-titration, N = 18)
0 n (%): AE severity: Death, subjects n (%) (steady state, N = 15) | AE severity: Life-Threatening, subjects n (%) (steady state, N = 15) | AE severity: Severe, subjects n (%) (steady state, N = 15) | Any AE leading to WFS, subjects n (%) (steady state, N = 15) | Any AE leading to death, subjects n (%) (steady state, N = 15) | Any SAE, subjects n (%) (steady state, N = 15) | SAE: CA or BD, subjects n (%) (steady state, N = 15) | SAE: ILT, subjects n (%) (steady state, N = 15) | SAE: OMISE, subjects n (%) (steady state, N = 15) | SAE: PSD/I, subjects n (%) (steady state, N = 15) | SAE: RPH, subjects n (%) (steady state, N = 15) | AE action: Drug Interrupted, subjects n (%) (up-titration, N = 18) | AE severity: Death, subjects n (%) (up-titration, N = 18) | AE severity: Life-Threatening, subjects n (%) (up-titration, N = 18) | AE severity: Severe, subjects n (%) (up-titration, N = 18) | Any AE leading to death, subjects n (%) (up-titration, N = 18) | Any SAE, subjects n (%) (up-titration, N = 18) | Orthostatic hypotension, subjects n (%) (up-titration, N = 18) | SAE: CA or BD, subjects n (%) (up-titration, N = 18) | SAE: ILT, subjects n (%) (up-titration, N = 18) | SAE: OMISE, subjects n (%) (up-titration, N = 18) | SAE: PSD/I, subjects n (%) (up-titration, N = 18) | SAE: RPH, subjects n (%) (up-titration, N = 18)
3: AE causality: Unlikely Related, events m (steady state, N = 15) | Any AE leading to WFS, events m (up-titration, N = 18) | Parkinsonism, events m (up-titration, N = 18)
11: Any AE, events m (steady state, N = 15)
2: AE causality: Probably Related, events m (up-titration, N = 18) | Dizziness, events m (up-titration, N = 18) | Dyskinesia, events m (up-titration, N = 18) | Fall, events m (up-titration, N = 18) | Headache, events m (up-titration, N = 18) | Nausea, events m (up-titration, N = 18) | Vertigo, events m (up-titration, N = 18) | Vomiting, events m (up-titration, N = 18)
3 (17) n (%): AE action: Dose Reduced, subjects n (%) (up-titration, N = 18) | Parkinsonism, subjects n (%) (up-titration, N = 18)
5: AE severity: Mild, events m (steady state, N = 15)
8 (53) n (%): Any AE, subjects n (%) (steady state, N = 15)
11 (61) n (%): AE causality: Possibly Related, subjects n (%) (up-titration, N = 18) | AE severity: Mild, subjects n (%) (up-titration, N = 18)
17: AE causality: Unlikely Related, events m (up-titration, N = 18) | AE severity: Moderate, events m (up-titration, N = 18)
2 (11) n (%): AE causality: Probably Related, subjects n (%) (up-titration, N = 18) | Dizziness, subjects n (%) (up-titration, N = 18) | Dyskinesia, subjects n (%) (up-titration, N = 18) | Headache, subjects n (%) (up-titration, N = 18) | Nausea, subjects n (%) (up-titration, N = 18) | Vertigo, subjects n (%) (up-titration, N = 18) | Vomiting, subjects n (%) (up-titration, N = 18)
35: AE severity: Mild, events m (up-titration, N = 18)
1 (6.7) n (%): AE causality: Probably Related, subjects n (%) (steady state, N = 15)
9: AE action: Not Applicable, events m (up-titration, N = 18)
5 (28) n (%): AE action: Not Applicable, subjects n (%) (up-titration, N = 18)
5 (33) n (%): AE causality: Possibly Related, subjects n (%) (steady state, N = 15)
10 (56) n (%): AE action: Dose Not Changed, subjects n (%) (up-titration, N = 18) | AE causality: Unlikely Related, subjects n (%) (up-titration, N = 18)
3 (20) n (%): AE causality: Unlikely Related, subjects n (%) (steady state, N = 15)
7 (39) n (%): AE severity: Moderate, subjects n (%) (up-titration, N = 18)
30: AE action: Dose Not Changed, events m (up-titration, N = 18)
52: Any AE, events m (up-titration, N = 18)
33: AE causality: Possibly Related, events m (up-titration, N = 18)
4 (27) n (%): AE severity: Mild, subjects n (%) (steady state, N = 15) | AE severity: Moderate, subjects n (%) (steady state, N = 15)
safe and well tolerated: Overall safety and tolerability (up to 2 mg/day, 8 weeks, PD patients with LID)
0: AE severity: Death, events m (steady state, N = 15) | AE severity: Life-Threatening, events m (steady state, N = 15) | AE severity: Severe, events m (steady state, N = 15) | Any AE leading to WFS, events m (steady state, N = 15) | Any AE leading to death, events m (steady state, N = 15) | Any SAE, events m (steady state, N = 15) | SAE: CA or BD, events m (steady state, N = 15) | SAE: ILT, events m (steady state, N = 15) | SAE: OMISE, events m (steady state, N = 15) | SAE: PSD/I, events m (steady state, N = 15) | SAE: RPH, events m (steady state, N = 15) | AE action: Drug Interrupted, events m (up-titration, N = 18) | AE severity: Death, events m (up-titration, N = 18) | AE severity: Life-Threatening, events m (up-titration, N = 18) | AE severity: Severe, events m (up-titration, N = 18) | Any AE leading to death, events m (up-titration, N = 18) | Any SAE, events m (up-titration, N = 18) | Orthostatic hypotension, events m (up-titration, N = 18) | SAE: CA or BD, events m (up-titration, N = 18) | SAE: ILT, events m (up-titration, N = 18) | SAE: OMISE, events m (up-titration, N = 18) | SAE: PSD/I, events m (up-titration, N = 18) | SAE: RPH, events m (up-titration, N = 18)
6: AE severity: Moderate, events m (steady state, N = 15)
1 (5.6) n (%): Any AE leading to WFS, subjects n (%) (up-titration, N = 18) | Back pain, subjects n (%) (up-titration, N = 18) | Dissociation, subjects n (%) (up-titration, N = 18) | Fall, subjects n (%) (up-titration, N = 18) | Fatigue, subjects n (%) (up-titration, N = 18) | Insomnia, subjects n (%) (up-titration, N = 18) | Restless legs syndrome, subjects n (%) (up-titration, N = 18)
1: AE causality: Probably Related, events m (steady state, N = 15) | Back pain, events m (up-titration, N = 18) | Dissociation, events m (up-titration, N = 18) | Fatigue, events m (up-titration, N = 18) | Insomnia, events m (up-titration, N = 18) | Restless legs syndrome, events m (up-titration, N = 18)
13: AE action: Dose Reduced, events m (up-titration, N = 18)
